According to patent US20180200366A1 (ALTOR BIOSCIENCE, published 2018):

B1: 2 headed (h2) hOATscAb/T×M (Fc fusion)
chain 1: [about 120 residues left out]
chain 2: DIQMTQSPASLSASVGDRVTITCLASQTIDTWLAWYLQKPGKSPQLLIYAATNLADGVPSRFSGSGSGTDFSFTISSLQPEDFATYYCQQVYSSPFTFGQGTKLEIKGGGGSGGGGSGGGGSQIQLVQSGGEVKKPGASVRVSCKASGYSFTDYNVYWVRQSPGKGLEWIGYIDPYNGITIYDQNFKGKATLTVDKSTSTAYMELSSLRSEDTAVYFCARDVTTALDFWGQGTTVTVSSITCPPPMSVEHADIWVKSYSLYSRERYICNSGFKRKAGTSSLTECVLNKATNVAHWTTPSLKCIR[human IgG1 Fc left out]
B2: anti-human PD-L1scAb/hOATscAb/T×M (Fc fusion)
chain 1: DIQMTQSPASLSASVGDRVTITCLASQTIDTWLAWYLQKPGKSPQLLIYAATNLADGVPSRFSGSGSGTDFSFTISSLQPEDFATYYCQQVYSSPFTFGQGTKLEIKGGGGSGGGGSGGGGSQIQLVQSGGEVKKPGASVRVSCKASGYSFTDYNVYWVRQSPGKGLEWIGYIDPYNGITIYDQNFKGKATLTVDKSTSTAYMELSSLRSEDTAVYFCARDVTTALDFWGQGTTVTVSSITCPPPMSVEHADIWVKSYSLYSRERYICNSGFKRKAGTSSLTECVLNKATNVAHWTTPSLKCIR[human IgG1 Fc left out]
chain 2: NIQMTQSPSSVSASVGDRVTITCRASQDISRWLAWYQQKPGKAPKLLIYAASSLQSGVPSRFSGSGSGTDFALTISSLQPEDFATYYCQQADSRFSITFGQGTRLEIKRGGGGSGGGGSGGGGSEVQLVQSGGGLVQPGGSLRLSCAASGFTFSSYSMNWVRQAPGKGLEWVSYISSSSSTIQYADSVKGRFTISRDNAKNSLYLQMNSLRDEDTAVYYCARGDYYYGMDVWGQGTTVTVSS[about 120 residues left out]
B3: second anti-human PD-L1 scAb/IL-15N72D:anti-human PD-L1 scAb/huIL-15RαSu/huIgG1 Fc fusion protein complex (avelumab T×M) (Fc fusion)
chain 1: QSALTQPASVSGSPGQSITISCTGTSSDVGGYNYVSWYQQHPGKAPKLMIYDVSNRPSGVSNRFSGSKSGNTASLTISGLQAEDEADYYCSSYTSSSTRVFGTGTKVTVLGGGGSGGGGSGGGGSEVQLLESGGGLVQPGGSLRLSCAASGFTFSSYIMMWVRQAPGKGLEWVSSIYPSGGITFYADTVKGRFTISRDNSKNTLYLQMNSLRAEDTAVYYCARIKLGTVTTVDYWGQGTLVTVSS[about 120 residues left out]
chain 2: QSALTQPASVSGSPGQSITISCTGTSSDVGGYNYVSWYQQHPGKAPKLMIYDVSNRPSGVSNRFSGSKSGNTASLTISGLQAEDEADYYCSSYTSSSTRVFGTGTKVTVLGGGGSGGGGSGGGGSEVQLLESGGGLVQPGGSLRLSCAASGFTFSSYIMMWVRQAPGKGLEWVSSIYPSGGITFYADTVKGRFTISRDNSKNTLYLQMNSLRAEDTAVYYCARIKLGTVTTVDYWGQGTLVTVSSITCPPPMSVEHADIWVKSYSLYSRERYICNSGFKRKAGTSSLTECVLNKATNVAHWTTPSLKCIR[human IgG1 Fc left out]
notes: also called avelumab-based PD-L1 T×M complex
B4: huIL-15N72D: human LFA-1 I domain(K287C/K294C)/huIL-15RαSu/huIgG1 Fc complex (2*hLFA1/T×M) (Fc fusion)
chain 1: [about 120 residues left out]
chain 2: DLVFLFDGSMSLQPDEFQKILDFMKDVMKKLSNTSYQFAAVQFSTSYKTEFDFSDYVKRKDPDALLKHVKHMLLLTNTFGAINYVATEVFREELGARPDATKVLIIITDGEATDSGNIDAAKDIIRYIIGIGKHFQTKESQETLHKFASKPASEFVCILDTFECLKDLFTELQKKIYVIEGTSKQDLTSFNMELSSSGISADLSRGHAITCPPPMSVEHADIWVKSYSLYSRERYICNSGFKRKAGTSSLTECVLNKATNVAHWTTPSLKCIR[human IgG1 Fc left out]
notes: also called LFA-1 T×M complex

Legend:
IL-2Rβ/γ on 32Dβ cells = assay: cell-based or functional assay
Chain of IL-2Rβ/γ on 32Dβ cells (P14784 27-551, chain 1 of 2): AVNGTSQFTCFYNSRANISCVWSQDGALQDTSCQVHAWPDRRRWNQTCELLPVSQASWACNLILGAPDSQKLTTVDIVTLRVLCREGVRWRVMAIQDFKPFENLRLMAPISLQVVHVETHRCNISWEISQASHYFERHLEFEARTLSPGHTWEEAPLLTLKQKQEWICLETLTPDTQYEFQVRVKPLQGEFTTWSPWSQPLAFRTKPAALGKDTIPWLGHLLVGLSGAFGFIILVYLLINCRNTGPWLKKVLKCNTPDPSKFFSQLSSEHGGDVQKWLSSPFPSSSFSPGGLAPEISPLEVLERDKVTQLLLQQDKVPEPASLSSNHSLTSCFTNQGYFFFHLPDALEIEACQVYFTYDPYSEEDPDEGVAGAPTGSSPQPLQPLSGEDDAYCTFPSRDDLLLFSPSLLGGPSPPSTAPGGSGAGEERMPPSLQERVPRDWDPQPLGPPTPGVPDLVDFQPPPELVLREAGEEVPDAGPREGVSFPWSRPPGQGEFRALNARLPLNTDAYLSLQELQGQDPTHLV
Chain of IL-2Rβ/γ on 32Dβ cells (P34902 23-369, chain 2 of 2, further chain): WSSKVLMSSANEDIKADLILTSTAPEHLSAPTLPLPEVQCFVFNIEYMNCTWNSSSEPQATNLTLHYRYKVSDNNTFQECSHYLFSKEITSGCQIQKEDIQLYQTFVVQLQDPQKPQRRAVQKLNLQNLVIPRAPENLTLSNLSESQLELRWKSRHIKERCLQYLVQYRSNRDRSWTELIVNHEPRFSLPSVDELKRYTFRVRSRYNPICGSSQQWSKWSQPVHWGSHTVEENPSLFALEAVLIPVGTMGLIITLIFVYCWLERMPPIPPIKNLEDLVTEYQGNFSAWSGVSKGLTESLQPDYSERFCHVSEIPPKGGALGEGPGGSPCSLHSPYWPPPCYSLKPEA

human PD-L1 = target: T1, human PD-L1 (human, UniProt Q9NZQ7); assay: flow cytometry on MB231 tumor cells
Chain of human PD-L1 (Q9NZQ7 19-290): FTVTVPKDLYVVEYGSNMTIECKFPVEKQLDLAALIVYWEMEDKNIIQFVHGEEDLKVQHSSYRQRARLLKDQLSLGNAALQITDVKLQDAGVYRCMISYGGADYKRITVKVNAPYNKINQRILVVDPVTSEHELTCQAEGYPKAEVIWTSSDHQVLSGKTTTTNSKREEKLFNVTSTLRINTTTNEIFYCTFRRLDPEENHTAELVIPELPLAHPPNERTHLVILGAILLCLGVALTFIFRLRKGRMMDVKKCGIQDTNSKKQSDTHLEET
T1 construct: whole, on cells; also called PD-L1 on MB231, PC-3 and SW1990 human tumor cells

[1] = target: T2, human ICAM-1-Fc (Biolegend) (human, UniProt P05362 28-480); assay: ELISA, 1 µg human ICAM-1-Fc coated, CHO supernatant, HRP anti-human IL-15 detection, A405
T2 construct: not shown: Fc part of the bought fusion; not described
T2 sequence (P05362 28-480 limits assumed): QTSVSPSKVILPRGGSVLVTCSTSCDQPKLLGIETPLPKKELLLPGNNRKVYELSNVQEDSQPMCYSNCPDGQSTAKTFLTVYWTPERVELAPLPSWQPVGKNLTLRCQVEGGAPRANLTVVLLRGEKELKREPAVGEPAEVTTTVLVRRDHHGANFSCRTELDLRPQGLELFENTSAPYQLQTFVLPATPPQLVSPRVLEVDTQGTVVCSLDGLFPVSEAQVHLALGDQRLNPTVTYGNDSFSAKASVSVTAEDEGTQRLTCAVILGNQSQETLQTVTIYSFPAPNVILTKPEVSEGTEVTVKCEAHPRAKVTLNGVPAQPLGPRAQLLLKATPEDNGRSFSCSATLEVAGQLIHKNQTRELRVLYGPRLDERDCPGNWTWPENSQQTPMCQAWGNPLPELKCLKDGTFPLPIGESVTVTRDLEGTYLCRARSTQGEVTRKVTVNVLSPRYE

Row | Binder | EC50 of IL-15 bioactivity (32Dβ cell proliferation, PrestoBlue) (IL-2Rβ/γ on 32Dβ cells) [pM TxM] | other results
1 | B1 | 115 | 
2 | B2 | 202 | 
3 | B3 |  | binding result (human PD-L1): binds
4 | B4 |  | binding result [1]: binds
